# Test results: the supplement of paper PMC9446081
# Among all 39,000 compounds or so, about 220 (0.56%) showed activity. Some of the results follow.
# Test system: Escherichia coli K-12 BW25113
# Assay: relative growth (OD600 normalised to plate interquartile mean) (fraction); higher = less growth inhibition, active = 0.2 or less
# Conditions: 50 µM; LB; incubation time: overnight (16-24 h)
# 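Further: static incubation at 37 °C against the wild-type strain, values averaged over two biological replicates.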
row,SMILES,relative growth
1,C[C@@H]1CN([C@@H](C)CO)C(=O)CCCn2cc(nn2)CO[C@@H]1CN(C)C(=O)c1cc(-c2ccccc2)on1,inactive: 0.99
2,C[C@@H]1CN([C@H](C)CO)C(=O)Cc2cc(NC(=O)Nc3ccc(C(F)(F)F)cc3)ccc2O[C@@H]1CN(C)C(=O)Nc1ccc2c(c1)OCO2,inactive: 1.04
3,CN(C)c1cc(NC(=O)CNC(C)(C)C)c(O)c2c1CC1CC3C(N(C)C)C(O)=C(C(N)=O)C(=O)C3(O)C(O)=C1C2=O (stereo not drawn),inactive: 1.06
4,Cc1noc(C)c1S(=O)(=O)N(C)C[C@@H]1Oc2ccc(NC(=O)CCN3CCOCC3)cc2C(=O)N([C@H](C)CO)C[C@@H]1C,inactive: 1.04
5,Cc1noc(C)c1NC(=O)Nc1ccc2c(c1)CC(=O)N([C@H](C)CO)C[C@H](C)[C@H](CN(C)Cc1ccc(Cl)c(Cl)c1)O2,inactive: 0.93
6,O=[N+]([O-])c1ccc(/C=C/CN(C/C=C/c2ccc([N+](=O)[O-])cc2)CCCNS(=O)(=O)c2cccc3cnccc23)cc1,inactive: 1.02
7,CCCC(=O)Nc1ccc2c(c1)OC[C@H](C)N(Cc1ccc(-c3ccccn3)cc1)C[C@H](C)[C@@H](OC)CN(C)C2=O,inactive: 0.981
8,C[C@@H]1CN([C@@H](C)CO)C(=O)c2cc(/C=C/c3ccccc3)cnc2O[C@H]1CN(C)S(=O)(=O)c1cn(C)cn1,inactive: 0.979
9,Oc1cc(O)c2c(c1)OC(c1ccc(O)c(O)c1)C(O)C2 (stereo not drawn) [CIANIDANOL [+-catechin]],inactive: 0.987
10,COc1ccc(NC(=O)N(C)C[C@H]2Oc3ccc(NS(=O)(=O)c4cn(C)cn4)cc3C(=O)N([C@H](C)CO)C[C@@H]2C)cc1,inactive: 0.988
11,Nc1ccc(CCNc2ncnc3c2ncn3[C@@H]2O[C@H](CO)[C@@H](O)[C@H]2O)cc1,inactive: 0.986
12,C[C@@H]1CN([C@H](C)CO)C(=O)c2cc(NS(=O)(=O)c3ccc(Cl)cc3)ccc2O[C@@H](C)CCCCO[C@H]1CN(C)C(=O)Nc1ccccc1,inactive: 1.02
13,C[C@H](CO)N1C[C@H](C)[C@H](CN(C)S(=O)(=O)c2ccc(F)cc2)Oc2c(NC(=O)c3cnccn3)cccc2C1=O,inactive: 1.01
14,C[C@@H]1CCCCO[C@@H](CN(C)C(=O)Nc2ccc(C(F)(F)F)cc2)[C@@H](C)CN([C@H](C)CO)C(=O)c2cc(NC(=O)c3ccncc3)ccc2O1,inactive: 0.953
15,C[C@@H]1CN([C@@H](C)CO)C(=O)c2cccc(NC(=O)NC3CCCCC3)c2O[C@@H]1CN(C)Cc1ccc(Oc2ccccc2)cc1,inactive: 1.01
16,Nc1nnnn1CC(=O)OCC(=O)Nc1ccccc1,inactive: 0.996
17,O=C(C1=C[C@@H](c2ccc(Br)cc2)C[C@@H](OCc2ccc(CO)cc2)O1)N1CCN(Cc2ccccc2)CC1,inactive: 1.01
18,C[C@H](CO)N1C[C@H](C)[C@@H](CN(C)Cc2ccc(C(=O)Nc3ccccc3N)cc2)OCc2cn(nn2)CCCC1=O,inactive: 0.976
19,CC(C)CC#Cc1ccc2c(c1)O[C@H](CN(C)C(=O)C1CCOCC1)[C@H](C)CN([C@H](C)CO)S2(=O)=O,inactive: 0.973

row,SMILES,relative growth
1,C[C@H]1CN([C@@H](C)CO)C(=O)CCCn2cc(nn2)CO[C@H]1CN(C)S(=O)(=O)c1ccc(Oc2ccccc2)nc1,inactive: 0.991
2,COc1ccc(C)c2c1CCCC2=O,inactive: 1.02
3,NC(=O)Nc1ccc(C(=O)O)cc1,inactive: 1.01
4,COc1ccc(NC(=O)N(C)C[C@@H]2OCCCC[C@@H](C)Oc3ccc(NS(=O)(=O)c4ccc(Cl)cc4)cc3C(=O)N([C@H](C)CO)C[C@@H]2C)cc1,inactive: 0.987
5,Cc1ccc(S(=O)(=O)N(C)C[C@H]2Oc3ccc(NC(=O)Nc4ccc(C(F)(F)F)cc4)cc3CC(=O)N([C@H](C)CO)C[C@@H]2C)cc1,inactive: 1.01
6,Cc1noc(C)c1NC(=O)N(C)C[C@H]1Oc2cc(C#CCN(C)C)ccc2S(=O)(=O)N([C@@H](C)CO)C[C@H]1C,inactive: 0.964
7,O=C(O)CNC(=O)c1ccccc1,inactive: 1.02
8,CC(=O)OC1CC2(C)C(CC(O)C3C4(C)CCC(O)C(C)C4CCC32C)C1=C(CCC=C(C)C)C(=O)O (stereo not drawn),inactive: 1.13
9,C[C@@H]1CN([C@H](C)CO)C(=O)c2cc(NS(=O)(=O)c3ccccc3)ccc2O[C@@H](C)CCCCO[C@@H]1CN(C)Cc1ccccc1,inactive: 1.04
10,C[C@H]1CCCCO[C@H](CN(C)C(=O)Nc2ccc(C(F)(F)F)cc2)[C@@H](C)CN([C@@H](C)CO)C(=O)c2cc(NS(=O)(=O)c3cn(C)cn3)ccc2O1,inactive: 0.891
11,C[C@H](CO)N1C[C@H](C)[C@H](CN(C)Cc2ccc(Oc3ccccc3)cc2)Oc2ccc(NC(=O)Cc3cn(C)c4ccccc34)cc2CC1=O,inactive: 0.975
12,C[C@H]1CN([C@@H](C)CO)C(=O)CCCn2cc(nn2)CO[C@H]1CN(C)S(=O)(=O)c1ccc(Oc2ccccc2)cc1,inactive: 0.994
13,Cc1cc2c(cc1C)N=C(C(F)(F)F)CC(c1cccs1)=N2,inactive: 1.01
14,COc1ccc(S(=O)(=O)Nc2ccc3c(c2)C(=O)N([C@H](C)CO)C[C@@H](C)[C@@H](CN(C)C(=O)Nc2c(C)noc2C)OCCCC[C@@H](C)O3)cc1,inactive: 1
15,Cc1noc(C)c1NC(=O)N(C)C[C@H]1OCCCC[C@H](C)Oc2ccc(NS(=O)(=O)c3ccc(F)cc3)cc2C(=O)N([C@@H](C)CO)C[C@@H]1C,inactive: 0.991
16,C[C@H](CO)N1C[C@H](C)[C@H](CN(C)Cc2ccc(C(F)(F)F)cc2)OCCCC[C@H](C)Oc2ccc(N(C)C)cc2C1=O,inactive: 0.999
17,C[C@@H]1CN([C@@H](C)CO)C(=O)c2cc(C#CC3(O)CCCC3)cnc2O[C@@H]1CN(C)S(=O)(=O)c1ccccc1,inactive: 0.996
18,COc1ccc(NC(=O)Nc2ccc3c(c2)CC(=O)N([C@H](C)CO)C[C@H](C)[C@H](CN(C)Cc2ccc(Oc4ccccc4)cc2)O3)cc1,inactive: 1.01
19,COCC(=O)N1C[C@H](C)[C@H](OC)CN(C)C(=O)c2ccc(NC(=O)Nc3cccc(F)c3)cc2OC[C@@H]1C,inactive: 0.995
